In all, about 110,000 compounds were measured (“z-score”: median about -0.1, highest 2% from about 2 on). This is one part of the list.
The compounds below were run against Metabotropic glutamate receptor 8 (Rattus norvegicus) (UniProt P70579) (assay: rat mGluR8 modulators via GIRK flux, primary screen, cell-based, thallium flux, HTS (AID 488969)). Conditions: HEK293 rat mGluR8, GIRK (G protein-gated inwardly rectifying potassium channel) thallium flux, FluoZin2; at 10 µM; stronger effect = higher value; submaximal glutamate (EC20) added with thallium.
UniProt P70579, sequence (P70579 whole entry, looked up): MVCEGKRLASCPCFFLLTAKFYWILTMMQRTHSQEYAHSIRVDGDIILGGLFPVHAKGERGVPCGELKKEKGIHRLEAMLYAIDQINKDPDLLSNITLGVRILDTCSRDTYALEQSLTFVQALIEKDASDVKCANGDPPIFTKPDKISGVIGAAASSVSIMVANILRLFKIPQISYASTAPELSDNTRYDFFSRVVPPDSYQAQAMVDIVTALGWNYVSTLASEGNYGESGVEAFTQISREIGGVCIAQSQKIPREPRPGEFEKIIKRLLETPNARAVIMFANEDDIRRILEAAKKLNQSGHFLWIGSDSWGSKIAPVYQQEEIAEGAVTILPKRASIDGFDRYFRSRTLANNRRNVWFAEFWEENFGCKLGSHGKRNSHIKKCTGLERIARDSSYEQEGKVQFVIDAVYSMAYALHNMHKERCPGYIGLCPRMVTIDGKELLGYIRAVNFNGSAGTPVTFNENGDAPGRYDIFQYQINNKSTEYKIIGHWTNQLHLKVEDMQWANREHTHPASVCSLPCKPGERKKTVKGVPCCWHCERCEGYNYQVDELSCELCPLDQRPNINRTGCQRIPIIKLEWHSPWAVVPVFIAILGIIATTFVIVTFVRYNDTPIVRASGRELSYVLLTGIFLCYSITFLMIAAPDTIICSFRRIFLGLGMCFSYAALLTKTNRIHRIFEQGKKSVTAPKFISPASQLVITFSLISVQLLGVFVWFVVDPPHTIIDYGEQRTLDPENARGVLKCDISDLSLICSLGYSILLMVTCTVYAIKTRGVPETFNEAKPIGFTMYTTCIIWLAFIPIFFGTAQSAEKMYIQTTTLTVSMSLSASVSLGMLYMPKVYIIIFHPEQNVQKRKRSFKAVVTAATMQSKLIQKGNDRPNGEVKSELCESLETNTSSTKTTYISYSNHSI
`CCC(NS(=O)(=O)c1ccc(OC)cc1)C(=O)O` (stereo not given) was tested, and the z-score was -0.512. For `CCOC(=O)c1cc2sc(C)cc2n1CC(=O)N1CCOCC1`, the z-score was -0.116. Compound `COc1ccccc1C(=O)N1CCN=C1SCc1cccnc1` has a z-score of 0.00671. For `Cc1ccc(NC(=O)c2ccc(CSc3nnc(C)s3)cc2)c(C)c1`, the z-score was -0.22. Compound `CC1CCCCN1C(=O)c1ccc(C(=O)N2CCCCC2C)cc1` (stereo not given) has a z-score of 0.33. `COC(=O)Cn1cnc2c(C#N)c3n(c2c1=O)CCCCC3` gave a z-score of 0.15. `COCCn1c(C)cc(C(=O)COC(=O)c2cncc(Br)c2)c1C` was tested, and the z-score was 0.145. `O=C(Nc1cccc(C(=O)N2CCOCC2)c1)c1ccccc1` was tested, and the z-score was -0.393. For `COc1cccc(C2CC(c3ccccc3OC)n3nc(N)nc3N2)c1` (stereo not given), the z-score was 0.108. Work on `N#C/C(=C\c1cccc(Cl)c1)c1n[nH]c(Cn2cncn2)n1` yielded a z-score of -0.433. `COc1ccc(/C=N/N=C/c2ccc(OC)c(O)c2)cc1O` showed a z-score of -0.0586. For `CSc1nnc(-c2sc(-c3ccccc3)nc2C)n1C`, the z-score was 0.0959. In the case of `Cc1ccc(C(=O)C2=C(O)C(=O)N(CCCN3CCOCC3)C23C(=O)N(C)c2ccccc23)o1` (stereo not given), the z-score is reported as -0.636. With `Cc1ccc(C(=O)N2CCN(c3ccc(NC(=O)c4ccc(Br)o4)cc3)CC2)cc1` the z-score was -0.286. With `Cc1ccc(C(CC(=O)NCc2ccco2)c2ccc(OC(C)C)cc2)cc1` (stereo not given) the z-score was -0.967. Work on `O=C(Nc1ncc(Cc2ccc(C(F)(F)F)cc2)s1)c1ccc(-c2cccc([N+](=O)[O-])c2)o1` yielded a z-score of -0.2. Work on `O=C(CSc1ccc2nnc(-c3ccccn3)n2n1)NCc1ccc2c(c1)OCO2` yielded a z-score of -0.387. In the case of `CCOc1ccccc1NC(=S)NCC1CCCO1` (stereo not given), the z-score is reported as 0.153. Compound `COc1ccccc1N1CCN(c2nnc(-c3ccc(F)cc3)c3ccccc23)CC1` has a z-score of -0.347. For `O=C1/C(=C/c2ccncc2)SC(=S)N1C1CCS(=O)(=O)C1` (stereo not given), the z-score was -0.126. `CCCSc1nnc2nc3c(nn12)c1ccccc1n3C` showed a z-score of -0.114. `COc1cccc(C2C(C#N)=C(N)Oc3c2oc(CO)cc3=O)c1` (stereo not given) gave a z-score of -1.28. `COc1ccc(Nc2ccc(S(=O)(=O)N3CCCCCC3)cc2[N+](=O)[O-])cc1` showed a z-score of 0.571. For `Cc1ccc(C)c(S(=O)(=O)N2CCN(CC(=O)Nc3ccc([N+](=O)[O-])cc3)CC2)c1`, the z-score was -0.137. Work on `Cc1ccccc1NC(=O)C1c2ccccc2Oc2ccccc21` yielded a z-score of -0.192. With `COCCCN=CC1=C(O)CC(C)(C)CC1=O` the z-score was -0.139. `Cc1cc2n(n1)C(c1ccccc1Cl)Nc1ccccc1-2` (stereo not given) was tested, and the z-score was -2.39. `COc1cc(/C=C(\C#N)c2ccccn2)ccc1OCc1ccc(Cl)cc1` was tested, and the z-score was -0.0975. With `Cc1ccc(Cc2cnc(NC(=O)/C(C#N)=C/c3ccc(-c4cccc([N+](=O)[O-])c4)o3)s2)cc1` the z-score was -0.137. For `CCN1CC(O)=C(c2nc3ccccc3s2)C1=N`, the z-score was -0.416.
